Measured values: the supplement of paper PMC8728848
The other results are listed elsewhere or left out.

What was measured:
Test in all cases: glycan array binding signal (z-score within array); higher = stronger binding
Conditions in all cases: glycan notation: IUPAC condensed, linker removed
[1] = molecular target: Neu5Ac(a2-3)Gal(b1-3)[Fuc(a1-4)]GlcNAc
Method in brief: (§1)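 From the Consortium for Functional Glycomics database, 3228 arrays were curated, keeping only those whose protein sequence was available. Binding is given as a within-array Z-score averaged across arrays sharing a protein sequence and across linkers. Negative Z-scores can be read as non-binding.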

[2] = molecular target: Neu5Ac(a2-3)Gal(b1-3)[Fuc(a1-4)]GlcNAc(b1-3)Gal(b1-3)[Fuc(a1-4)]GlcNAc
Method in brief: as §1

[3] = molecular target: Neu5Ac(a2-3)Gal(b1-3)[Fuc(a1-4)]GlcNAc(b1-3)Gal(b1-4)[Fuc(a1-3)]GlcNAc
Method in brief: as §1

[4] = molecular target: Neu5Ac(a2-3)Gal(b1-3)[GlcNAc(b1-6)]GalNAc
Method in brief: as §1

[5] = molecular target: Neu5Ac(a2-3)Gal(b1-3)[Neu5Ac(a2-3)Gal(b1-4)]GlcNAc
Method in brief: as §1

[6] = molecular target: Neu5Ac(a2-3)Gal(b1-3)[Neu5Ac(a2-6)]GalNAc
Method in brief: as §1

[7] = molecular target: Neu5Ac(a2-3)Gal(b1-3)[Neu5Ac(a2-6)]GlcNAc(b1-3)[Fuc(a1-3)[Gal(b1-4)]GlcNAc(b1-6)]Gal(b1-4)Glc
Method in brief: as §1

[8] = molecular target: Neu5Ac(a2-3)Gal(b1-3)]Neu5Ac(a2-3)Gal(b1-4)]GlcNAc
Method in brief: as §1

Neu5Ac(a2-3)Gal(b1-4)Glc = molecular target: Neu5Ac(a2-3)Gal(b1-4)Glc
Method in brief: as §1

[9] = molecular target: Neu5Ac(a2-3)Gal(b1-4)GlcNAc
Method in brief: as §1

[10] = molecular target: Neu5Ac(a2-3)Gal(b1-4)GlcNAc(b1-2)Man
Method in brief: as §1

[11] = molecular target: Neu5Ac(a2-3)Gal(b1-4)GlcNAc(b1-2)Man(a1-3)[GlcNAc(b1-4)][Neu5Ac(a2-3)Gal(b1-4)GlcNAc(b1-2)Man(a1-6)]Man(b1-4)GlcNAc(b1-4)GlcNAc
Method in brief: as §1

[12] = molecular target: Neu5Ac(a2-3)Gal(b1-4)GlcNAc(b1-2)Man(a1-3)[Neu5Ac(a2-3)Gal(b1-4)GlcNAc(b1-2)Man(a1-6)]Man(b1-4)GlcNAc(b1-4)GlcNAc
Method in brief: as §1

[13] = molecular target: Neu5Ac(a2-3)Gal(b1-4)GlcNAc(b1-2)Man(a1-3)[Neu5Ac(a2-3)Gal(b1-4)GlcNAc(b1-2)Man(a1-6)]Man(b1-4)GlcNAc(b1-4)[Fuc(a1-6)]GlcNAc
Method in brief: as §1

[14] = molecular target: Neu5Ac(a2-3)Gal(b1-4)GlcNAc(b1-2)Man(a1-3)[Neu5Ac(a2-6)Gal(b1-4)GlcNAc(b1-2)Man(a1-6)]Man(b1-4)GlcNAc(b1-4)GlcNAc
Method in brief: as §1

[15] = molecular target: Neu5Ac(a2-3)Gal(b1-4)GlcNAc(b1-2)[Neu5Ac(a2-3)Gal(b1-4)GlcNAc(b1-4)]Man(a1-3)[GlcNAc(b1-4)][Neu5Ac(a2-3)Gal(b1-4)GlcNAc(b1-2)[Neu5Ac(a2-3)Gal(b1-4)GlcNAc(b1-6)]Man(a1-6)]Man(b1-4)GlcNAc(b1-4)GlcNAc
Method in brief: as §1

[16] = molecular target: Neu5Ac(a2-3)Gal(b1-4)GlcNAc(b1-2)[Neu5Ac(a2-3)Gal(b1-4)GlcNAc(b1-4)]Man(a1-3)[GlcNAc(b1-4)][Neu5Ac(a2-3)Gal(b1-4)GlcNAc(b1-4)Man(a1-6)]Man(b1-4)GlcNAc(b1-4)GlcNAc
Method in brief: as §1

[17] = molecular target: Neu5Ac(a2-3)Gal(b1-4)GlcNAc(b1-2)[Neu5Ac(a2-3)Gal(b1-4)GlcNAc(b1-6)]Man(a1-6)[Neu5Ac(a2-3)Gal(b1-4)GlcNAc(b1-2)Man(a1-3)]Man(b1-4)GlcNAc(b1-4)GlcNAc
Method in brief: as §1

[18] = molecular target: Neu5Ac(a2-3)Gal(b1-4)GlcNAc(b1-2)[Neu5Ac(a2-3)Gal(b1-4)GlcNAc(b1-6)]Man(a1-6)[Neu5Ac(a2-3)Gal(b1-4)GlcNAc(b1-2)Man(a1-3)][GlcNAc(b1-4)]Man(b1-4)GlcNAc(b1-4)GlcNAc
Method in brief: as §1

[19] = molecular target: Neu5Ac(a2-3)Gal(b1-4)GlcNAc(b1-3)Gal
Method in brief: as §1

[20] = molecular target: Neu5Ac(a2-3)Gal(b1-4)GlcNAc(b1-3)Gal(b1-3)GlcNAc
Method in brief: as §1

[21] = molecular target: Neu5Ac(a2-3)Gal(b1-4)GlcNAc(b1-3)Gal(b1-4)GlcNAc
Method in brief: as §1

[22] = molecular target: Neu5Ac(a2-3)Gal(b1-4)GlcNAc(b1-3)Gal(b1-4)GlcNAc(b1-2)Man(a1-3)[Neu5Ac(a2-3)Gal(b1-4)GlcNAc(b1-3)Gal(b1-4)GlcNAc(b1-2)Man(a1-6)]Man(b1-4)GlcNAc(b1-4)GlcNAc
Method in brief: as §1

[23] = molecular target: Neu5Ac(a2-3)Gal(b1-4)GlcNAc(b1-3)Gal(b1-4)GlcNAc(b1-3)Gal(b1-4)GlcNAc
Method in brief: as §1

[24] = molecular target: Neu5Ac(a2-3)Gal(b1-4)GlcNAc(b1-3)Gal(b1-4)GlcNAc(b1-3)Gal(b1-4)GlcNAc(b1-2)Man(a1-3)[Neu5Ac(a2-3)Gal(b1-4)GlcNAc(b1-3)Gal(b1-4)GlcNAc(b1-3)Gal(b1-4)GlcNAc(b1-2)Man(a1-6)]GalNAc
Method in brief: as §1

[25] = molecular target: Neu5Ac(a2-3)Gal(b1-4)GlcNAc(b1-3)Gal(b1-4)GlcNAc(b1-3)GalNAc
Method in brief: as §1

[26] = molecular target: Neu5Ac(a2-3)Gal(b1-4)GlcNAc(b1-3)Gal(b1-4)GlcNAc(b1-3)[Neu5Ac(a2-3)Gal(b1-4)GlcNAc(b1-3)Gal(b1-4)GlcNAc(b1-6)]GalNAc
Method in brief: as §1

[27] = molecular target: Neu5Ac(a2-3)Gal(b1-4)GlcNAc(b1-3)Gal(b1-4)GlcNAc(b1-6)[Gal(b1-3)]GalNAc
Method in brief: as §1

[28] = molecular target: Neu5Ac(a2-3)Gal(b1-4)GlcNAc(b1-3)Gal(b1-4)[Fuc(a1-3)]GlcNAc
Method in brief: as §1

[29] = molecular target: Neu5Ac(a2-3)Gal(b1-4)GlcNAc(b1-3)GalNAc
Method in brief: as §1

[30] = molecular target: Neu5Ac(a2-3)Gal(b1-4)GlcNAc(b1-3)[Neu5Ac(a2-3)Gal(b1-4)GlcNAc(b1-6)]GalNAc
Method in brief: as §1

[31] = molecular target: Neu5Ac(a2-3)Gal(b1-4)GlcNAc(b1-6)GalNAc
Method in brief: as §1

[32] = molecular target: Neu5Ac(a2-3)Gal(b1-4)GlcNAc(b1-6)[Gal(b1-3)]GalNAc
Method in brief: as §1

[33] = molecular target: Neu5Ac(a2-3)Gal(b1-4)GlcNAc(b1-6)[Neu5Ac(a2-3)Gal(b1-3)]GalNAc
Method in brief: as §1

[34] = molecular target: Neu5Ac(a2-3)Gal(b1-4)GlcNAc6S
Method in brief: as §1

[35] = molecular target: Neu5Ac(a2-3)Gal(b1-4)[Fuc(a1-3)]GlcNAc
Method in brief: as §1

[36] = molecular target: Neu5Ac(a2-3)Gal(b1-4)[Fuc(a1-3)]GlcNAc(b1-2)Man
Method in brief: as §1

[37] = molecular target: Neu5Ac(a2-3)Gal(b1-4)[Fuc(a1-3)]GlcNAc(b1-3)Gal
Method in brief: as §1

[38] = molecular target: Neu5Ac(a2-3)Gal(b1-4)[Fuc(a1-3)]GlcNAc(b1-3)Gal(b1-4)GlcNAc
Method in brief: as §1

[39] = molecular target: Neu5Ac(a2-3)Gal(b1-4)[Fuc(a1-3)]GlcNAc(b1-3)Gal(b1-4)[Fuc(a1-3)]GlcNAc(b1-3)Gal(b1-4)[Fuc(a1-3)]GlcNAc
Method in brief: as §1

[40] = molecular target: Neu5Ac(a2-3)Gal(b1-4)[Fuc(a1-3)]GlcNAc(b1-3)GalNAc
Method in brief: as §1

B1: ABA (Agaricus bisporus), Q00022 (protein)
chain: MTYTISIRVYQTTPKGFFRPVERTNWKYANGGTWDEVRGEYVLTMGGSGTSGSLRFVSSDTDESFVATFGVHNYKRWCDIVTNLTNEQTALVINQEYYGVPIRDQARENQLTSYNVANAKGRRFAIEYTVTEGDNLKANLIIG
- glycan array binding signal (z-score) [1]: -0.265
- glycan array binding signal (z-score) [2]: -0.25
- glycan array binding signal (z-score) [3]: -0.219
- glycan array binding signal (z-score) [4]: 0.85
- glycan array binding signal (z-score) [5]: -0.16
- glycan array binding signal (z-score) [6]: 0.179
- glycan array binding signal (z-score) [7]: -0.229
- glycan array binding signal (z-score) [8]: -0.265
- glycan array binding signal (z-score) (Neu5Ac(a2-3)Gal(b1-4)Glc): -0.172
- glycan array binding signal (z-score) [9]: -0.272
- glycan array binding signal (z-score) [10]: 0.086
- glycan array binding signal (z-score) [11]: -0.274
- glycan array binding signal (z-score) [12]: -0.252
- glycan array binding signal (z-score) [13]: -0.272
- glycan array binding signal (z-score) [14]: -0.271
- glycan array binding signal (z-score) [15]: -0.264
- glycan array binding signal (z-score) [16]: -0.272
- glycan array binding signal (z-score) [17]: -0.242
- glycan array binding signal (z-score) [18]: -0.292
- glycan array binding signal (z-score) [19]: -0.292
- glycan array binding signal (z-score) [20]: -0.259
- glycan array binding signal (z-score) [21]: -0.332
- glycan array binding signal (z-score) [22]: 2.72
- glycan array binding signal (z-score) [23]: -0.276
- glycan array binding signal (z-score) [24]: 2.8
- glycan array binding signal (z-score) [25]: -0.265
- glycan array binding signal (z-score) [26]: 0
- glycan array binding signal (z-score) [27]: 0.615
- glycan array binding signal (z-score) [28]: -0.193
- glycan array binding signal (z-score) [29]: -0.246
- glycan array binding signal (z-score) [30]: -0.238
- glycan array binding signal (z-score) [31]: -0.245
- glycan array binding signal (z-score) [32]: 0.741
- glycan array binding signal (z-score) [33]: -0.009
- glycan array binding signal (z-score) [34]: -0.243
- glycan array binding signal (z-score) [35]: -0.238
- glycan array binding signal (z-score) [36]: -0.254
- glycan array binding signal (z-score) [37]: -0.252
- glycan array binding signal (z-score) [38]: -0.322
- glycan array binding signal (z-score) [39]: -0.079
- glycan array binding signal (z-score) [40]: -0.183
